From the supplement of paper PMC4166925
± gives the standard deviation of the averaged measurements. In all, about 33,000 sequences were measured (“E-score (dimensionless, -0.5 to 0.5)”: median about -0.046, highest 2% from about 0.36 on). Some of the results follow.

test system: T1, SpTbr T-box DNA-binding domain (GST fusion); assay: PBM E-score of 8-mer (E-score (dimensionless, -0.5 to 0.5)); Tbr is Tbrain of the sea star Patiria miniata (Pm) or the sea urchin Strongylocentrotus purpuratus (Sp); higher = stronger binding preference; most listed sequences are background and not binding sites; conditions: the construct has about 5 more residues each side
T1 sequence: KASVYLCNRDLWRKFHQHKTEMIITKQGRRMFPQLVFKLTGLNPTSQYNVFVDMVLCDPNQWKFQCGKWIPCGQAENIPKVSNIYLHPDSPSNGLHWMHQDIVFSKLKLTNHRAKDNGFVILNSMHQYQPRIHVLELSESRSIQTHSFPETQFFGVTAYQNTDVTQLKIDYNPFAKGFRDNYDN
Summary of the method: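 GST-fused Tbr T-box DNA-binding domains (the whole T-box plus about five flanking residues) were expressed in BL21 E. coli at 20 °C and purified by glutathione affinity chromatography. Universal Agilent oligonucleotide arrays were made double-stranded by primer extension, incubated with 200 nM protein in PBS (pH 7.5), then scanned and quantified. Every ungapped 8-mer was scored from probe intensities. The Universal PBM Analysis Suite gave each word an enrichment E-score, averaged over duplicate arrays.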

Row | Sequence | PBM E-score of 8-mer
1 | TATTTCCA | -0.0513 ± 0.025
2 | CGGAGCCC | -0.273 ± 0.033
3 | AGAAGACA | 0.0347 ± 0.065
4 | AGGAGAGC | -0.223 ± 0.017
5 | CTATAGCA | -0.0519 ± 0.022
6 | AAGCGTTG | 0.192 ± 0.056
7 | ATACAGTA | -0.0823 ± 0.069
8 | CCGGGCAG | 0.00502 ± 0.076
9 | CAGCCGCG | 0.0443 ± 0.017
10 | AGAGGCAT | -0.31 ± 0.012
11 | AGACATAC | -0.0637 ± 0.046
12 | CCAGCAAC | 0.132 ± 0.08
13 | CGGATTTA | -0.0558 ± 0.011
14 | AAAGAGAC | 0.014 ± 0.013
15 | ATGCATCG | -0.277 ± 0.031
16 | AGCGTCCG | -0.0385 ± 0.011
17 | GAATGTTA | -0.116 ± 0.042
18 | AATTTAGG | -0.123 ± 0.019
19 | ACGGCGAC | 0.0465 ± 0.15
20 | ACTCCGGC | 0.0182 ± 0.027
21 | GATGCTAA | -0.0514 ± 0.076
22 | AAGCATAA | -0.188 ± 0.034
23 | GACAACTA | 0.126 ± 0.089
24 | ATCGTAGC | -0.0987 ± 0.018

Row | Sequence | PBM E-score of 8-mer
25 | GATTGGCA | -0.00044 ± 0.062
26 | ACGAGCCT | -0.103 ± 0.074
27 | ACCAGCAA | 0.0682 ± 0.1
28 | CTACCCTC | 0.00491 ± 0.053
29 | AGCTAGAC | -0.0541 ± 0.11
30 | CGTAGGCC | -0.165 ± 0.05
31 | GCCCTCGA | -0.117 ± 0.0067
32 | AGCGTATC | -0.174 ± 0.059
33 | GCACCCAA | 0.129 ± 0.0065
34 | ATGGGTTG | -0.0245 ± 0.061
35 | CTAAGCAG | -0.0896 ± 0.044
36 | TCAATCCA | -0.0551 ± 0.018
37 | GCGATCAA | 0.18 ± 0.035
38 | GTCATGTA | -0.103 ± 0.042
39 | ATGAGATA | -0.0124 ± 0.06
40 | CCCGTCTC | -0.111 ± 0.024
41 | TCCGAGGA | -0.273 ± 0.11
42 | CCGGTCCG | -0.227 ± 0.036
43 | GGACTTAC | -0.16 ± 0.046
44 | CTAGTCGC | 0.17 ± 0.037
45 | CAGGAACA | -0.0592 ± 0.01
46 | CTAGACAA | -0.0789 ± 0.0066
47 | AGGGGGGC | -0.297 ± 0.0057
48 | GAAGCGGC | 0.0332 ± 0.044

Row | Sequence | PBM E-score of 8-mer
49 | AACTAGCC | -0.195 ± 0.016
50 | GACGTGAA | 0.103 ± 0.064
51 | ACAGCAAG | 0.0648 ± 0.034
52 | ACGGCCCC | -0.245 ± 0.019
53 | ATAACTTG | -0.0421 ± 0.068
54 | TCCGTCAA | -0.0217 ± 0.072
55 | ATTTACAA | 0.0554 ± 0.12
56 | AATTTCAG | -0.112 ± 0.14
57 | AATAACCG | -0.0704 ± 0.021
58 | CCTTGCCC | -0.306 ± 0.024
59 | AGCCAAGG | -0.118 ± 0.076
60 | AAAACTTA | -0.0204 ± 0.0067
61 | TCACAGGA | 0.217 ± 0.02
62 | CCATCTTC | -0.066 ± 0.0012
63 | TACATATA | -0.309 ± 0.025
64 | AGACTAGA | -0.166 ± 0.012
65 | TGTTGTAA | 0.173 ± 0.068
66 | GGTCCGAA | -0.161 ± 0.035
67 | ACACCAAC | 0.33 ± 0.042
68 | GCGGAACC | -0.233 ± 0.12
69 | ACGCTACA | 0.0808 ± 0.067
70 | ATGATGCG | 0.103 ± 0.045
71 | CCCGAGTC | -0.236 ± 0.073
72 | CCGCGCCG | -0.0726 ± 0.2

Row | Sequence | PBM E-score of 8-mer
73 | CAACGTGA | 0.118 ± 0.025
74 | CACACCAC | 0.394 ± 0.015
75 | AATCCTTC | -0.185 ± 0.0063
76 | TACGTTCA | -0.0963 ± 0.066
77 | GTTTGTTA | 0.1648 ± 0.00076
78 | AAACTGCG | 0.126 ± 0.042
79 | ATGCGCGG | -0.0645 ± 0.066
80 | ATTGATCG | -0.0161 ± 0.025
81 | ATGGCAGA | -0.0355 ± 0.0081
82 | CACGTACG | 0.146 ± 0.013
83 | AGACGGTC | -0.0976 ± 0.022
84 | TGAGAGAA | 0.0644 ± 0.036
85 | CCCTCTAA | -0.0863 ± 0.034
86 | CAACTCGC | 0.3 ± 0.024
87 | ATAGCGAA | -0.00655 ± 0.0054
88 | GTCACAGA | 0.0552 ± 0.0087
89 | CGTCCGTA | -0.0855 ± 0.026
90 | ACCTAGAT | 0.0538 ± 0.0072
91 | CTTGTCCA | 0.0281 ± 0.03
92 | CAACAATC | 0.135 ± 0.0045
93 | CTTATTTA | -0.292 ± 0.038
94 | TAGGCCGA | -0.112 ± 0.007
